These results are taken from the RNAGym collection of RNA variant scans (doi:10.7554/elife.90254).

The source gives no read counts; variants with many changes may rest on few reads.

First the molecules themselves.
B1: LINE1-mini (parent)
chain: GGCAGAGCUCAACACAGCGUGGCAAAGUGGCUGUGGCUAGACUGCC

The variants in this data set derive from B1. Description: self-cleavage, relative activity (ratio to wild type); higher = more cleavage; in vitro, sequencing; the parent is a self-cleaving ribozyme.
For C13U G27U G30C A41G, the self-cleavage came to 0.05.

Take C13U G21A G29A C45G: the self-cleavage stood at 0.05.

Regarding A14C G35C C37A A41C, the self-cleavage turned out to be 0.02.

As to A14G G36C C46G, the self-cleavage amounted to 0.12.

For A14C C23A C45A, the self-cleavage is 0.04.

In the case of C13U G17U G19A A24U U38A, the self-cleavage was determined as 0.02.

A14C C15U A26U G27U C46G: the self-cleavage was determined as 0.

For A14C U32G G36U G40A, the self-cleavage is 0.15.

As to C13U C15A G17A A41U C46A, the self-cleavage was 0.09.

In the case of C13U G27A C31G, the self-cleavage came to 0.02.

Turning to C13U A39C C45A, the self-cleavage was determined as 0.04.

As to C13U A16C C18U A41U, the self-cleavage was found to be 0.

For C13U G40U C42G, the self-cleavage worked out at 0.06.

Regarding C13U G17A G19U, the self-cleavage worked out at 0.05.

In the case of A14U C18A G33C A39U, the self-cleavage was determined as 0.02.

Consider C13U G30C U32C A39C, for which the self-cleavage came out at 0.09.

For the variant C13G G29A C37U A39U, the self-cleavage is 0.02.

Turning to C13G G21U G33C, the self-cleavage was 0.07.

With C13U C15A A16G U38A, the self-cleavage worked out at 0.03.

With A14G A26G U28A A39C C45G, the self-cleavage is 0.08.

As for C13U A14C U32G A39U, the self-cleavage was found to be 0.01.

Turning to A14G C15U G30C U32C A39G, the self-cleavage came out at 0.04.

With C13U U20G A26G G35A, the self-cleavage came to 0.16.

C13G G19U G33C: the self-cleavage came out at 0.03.

As to A14U A24C G27A, the self-cleavage was 0.09.

For A14U A16G U20C A25C A26U G33U G40U, the self-cleavage amounted to 0.03.

On to A14G G30A A39G U43C, for which the self-cleavage worked out at 0.08.

Consider A14G C15A G44C, for which the self-cleavage worked out at 0.06.

A14C C18A U38A G40C: the self-cleavage turned out to be 0.11.

On to A14C C18U G29C, for which the self-cleavage turned out to be 0.01.

As for A14G U32G A41G, the self-cleavage is 0.06.

In the case of A14G A24U A41U, the self-cleavage came to 0.2.

Take A14C C15A U38A: the self-cleavage is 0.06.

Regarding A14G G40C C42A, the self-cleavage amounted to 0.24.

Take A14C G21U G22C G33C: the self-cleavage worked out at 0.02.

With C13G U20G C23G, the self-cleavage worked out at 0.01.

A14U C15U G30U U32A C45U: the self-cleavage was found to be 0.02.

As for A14C G30U G35A, the self-cleavage is 0.07.

C13U A39C A41U: the self-cleavage stood at 0.14.

Take C13U G22A C31A: the self-cleavage is 0.12.

With C13U G29U G44U, the self-cleavage was determined as 0.06.

Regarding C13U G17A G21A G27A U28G U32G U34C, the self-cleavage worked out at 0.11.

Take C13G G29A G33C: the self-cleavage came out at 0.01.

Turning to C13U G17U G29A U34G, the self-cleavage was 0.

For the variant C13G U34C C46U, the self-cleavage came to 0.02.

Take C13U U34G C45A: the self-cleavage came to 0.03.

Consider C13U A14U C37A, for which the self-cleavage amounted to 0.18.

Turning to A14C G17C A26U, the self-cleavage turned out to be 0.12.

As for C13U U28A G30U, the self-cleavage was 0.02.

As for C13G G22A A26C, the self-cleavage amounted to 0.06.

As to C13G U43G C45U, the self-cleavage was found to be 0.01.

C13U U38G C42U: the self-cleavage came out at 0.

A14G G17U G21C G22U G40C C46G: the self-cleavage stood at 0.03.

In the case of C13G U28A G29C C31A, the self-cleavage was found to be 0.03.

Regarding A14G C18U G29U A41G G44A C45U, the self-cleavage was 0.04.

As to C13G G21A G30C C42G, the self-cleavage was determined as 0.04.

Consider A14C C23U U28A, for which the self-cleavage is 0.01.

In the case of C13U C23G G29C G44A, the self-cleavage was determined as 0.07.

Turning to A14G A25C G29A C37G C46U, the self-cleavage worked out at 0.01.

For the variant A14G U28C U38C, the self-cleavage is 0.18.

Consider C13U G19U G33C, for which the self-cleavage was determined as 0.03.

Consider A14G A41U U43C, for which the self-cleavage is 0.09.

A14C G36U U38A: the self-cleavage was determined as 0.01.

As for C13U G17C A24C A25U U43C, the self-cleavage stood at 0.03.

For A14G G27U C42A, the self-cleavage was 0.

C13G G27C A39C: the self-cleavage was found to be 0.09.

For the variant A14C U20A G27C U32G, the self-cleavage worked out at 0.09.

For C13U G29U G40C, the self-cleavage came out at 0.3.

A14C U32G G33U: the self-cleavage stood at 0.

As for A14G G40U C46A, the self-cleavage stood at 0.02.

In the case of A14U A26C G29U, the self-cleavage came out at 0.23.

In the case of C13G G27U U38A, the self-cleavage was 0.25.

Take C13G G29U G36U C45G: the self-cleavage worked out at 0.02.

Take C13U G21A G22U: the self-cleavage was determined as 0.11.

Take C13U A16C G33A C37A: the self-cleavage stood at 0.11.

For the variant C13G U34G A39U A41U, the self-cleavage is 0.01.

As to A14C A16C A26U G29U, the self-cleavage amounted to 0.31.

On to A14G C15U A24C G36U A39G U43A, for which the self-cleavage amounted to 0.

Regarding C13G G27U U32A, the self-cleavage amounted to 0.21.

A14G G17C A25G C45A: the self-cleavage came out at 0.1.

In the case of C13U A26C G36U, the self-cleavage came out at 0.06.

Turning to A14G G22U A24U G29C G33C, the self-cleavage was 0.08.

A14C G17A G33C: the self-cleavage worked out at 0.02.

Consider A14C G17U C18A G27C A41G, for which the self-cleavage was determined as 0.19.

As for C13U U20C G21U C23A A25G, the self-cleavage was found to be 0.04.

As for C13U G27A G33U U38C C46G, the self-cleavage amounted to 0.11.

A14C U20A A25U U38G: the self-cleavage was 0.01.

For the variant C13U G21U U28C C46A, the self-cleavage was found to be 0.21.

On to C13G G21U G29U, for which the self-cleavage was 0.24.

A14G C15U G29U: the self-cleavage is 0.2.

For C13U G19A A24U G35U G40A G44C, the self-cleavage was found to be 0.1.

On to C13U A16U C18G G27A U28A, for which the self-cleavage was determined as 0.2.

In the case of C13U A14C A24U A26C G27A, the self-cleavage amounted to 0.08.

Take A14G C37A C45A: the self-cleavage was 0.01.

A14C C15G G22A: the self-cleavage was found to be 0.03.

For C13U G17U A26U G30A G40A C45U, the self-cleavage was 0.03.

Turning to A14G G33U G40U, the self-cleavage was 0.

For the variant C13U A16C C18A A26G, the self-cleavage was 0.02.

With C13U G33C U34A, the self-cleavage stood at 0.03.

For the variant C13U A24U C37A, the self-cleavage came out at 0.02.

As to C13U U20A G36U U38G, the self-cleavage was 0.02.

Take A14C G21U A25U C31A: the self-cleavage stood at 0.1.

As for C13G G17C G19C G30U G33A C46A, the self-cleavage turned out to be 0.01.

Consider C13U G21C A25G, for which the self-cleavage is 0.05.

Turning to A14U C15G C42U, the self-cleavage was 0.01.

With C13U G30A G36U C42U, the self-cleavage was 0.08.

Take C13G G22U C31G G35A A39C: the self-cleavage was determined as 0.04.

As for A14U A24C C45U, the self-cleavage came to 0.07.

A14U C15U C18G: the self-cleavage stood at 0.06.

Take C13G U20C G22C: the self-cleavage was determined as 0.32.

Consider C13G U28A C46A, for which the self-cleavage amounted to 0.12.

Take A14G U28G C31U: the self-cleavage is 0.07.

As to A14C C23U G33A, the self-cleavage came to 0.15.

On to A14G G17A U28C G33U G35U, for which the self-cleavage was determined as 0.05.

Turning to A14G G19C U32A G44U, the self-cleavage was found to be 0.06.

As for A14C C15U U20A G27A A39G, the self-cleavage was determined as 0.01.

Regarding A14G U38C A41G, the self-cleavage stood at 0.

For A14G G33U C42A G44U, the self-cleavage came to 0.02.

As for C13G U20A A24U, the self-cleavage was determined as 0.06.

In the case of A14C A26C U43C G44C, the self-cleavage came to 0.

Regarding C13G U20G G27U G30C G40C C42G C46G, the self-cleavage was found to be 0.01.

Consider C13U A14G U28C U32C G40U A41U, for which the self-cleavage is 0.07.

C13U A14U G27A U28C C46A: the self-cleavage turned out to be 0.01.

For the variant A14G G22U U38A G44C, the self-cleavage turned out to be 0.1.

Consider A14C C23U G30A A39G C42G, for which the self-cleavage came out at 0.02.

In the case of A14C G29C U38C, the self-cleavage is 0.01.

In the case of C13U A16G G17U C18G G19U G30A, the self-cleavage was 0.05.

Regarding C13U G21U C23A C46G, the self-cleavage stood at 0.02.

Turning to A14U C15G A16G A25G G35C, the self-cleavage amounted to 0.06.

For the variant A14G G27A U34C, the self-cleavage was 0.33.

C13U C23A G33U G44U: the self-cleavage was 0.61.

On to C13G G19U G44A, for which the self-cleavage is 0.21.

As to A14G U20C G22A C23G G40C A41C, the self-cleavage stood at 0.1.

For the variant C13U C15U C31U, the self-cleavage stood at 0.04.

Take A14U A25U G29U: the self-cleavage stood at 0.61.

On to C13U G21C C42U, for which the self-cleavage was 0.06.

Turning to A14C U34G U38A, the self-cleavage worked out at 0.02.

In the case of A14G G35A U43C, the self-cleavage stood at 0.07.

Turning to C13G G27A G33U, the self-cleavage is 0.42.

For the variant A14U A16C G27U G44U, the self-cleavage stood at 0.08.

As for A14G G21U G35U G44C, the self-cleavage stood at 0.03.

Take C13U C18U G21U A25G G27C: the self-cleavage was determined as 0.02.

C13G U34G G35C C46A: the self-cleavage stood at 0.15.

As for C13G U20G A25U G30A, the self-cleavage was 0.04.

As for C13U U34A U43G, the self-cleavage was found to be 0.65.

With A14G G30C U32C, the self-cleavage turned out to be 0.16.

On to C13U C31G U32G G36A C46G, for which the self-cleavage came to 0.03.

In the case of C13U A25C A26C C46U, the self-cleavage was 0.07.

Take A14C C31U U34G: the self-cleavage was 0.04.

A14C C31U U34C: the self-cleavage was determined as 0.01.

As to A14U C15U G36C U43C, the self-cleavage came out at 0.08.

As to C13U A24U U34C, the self-cleavage stood at 0.07.

As for A14C A26G U32C G33A C46G, the self-cleavage is 0.23.

Turning to A14C G17A C42G, the self-cleavage was found to be 0.07.

Consider A14C G19U G36A G40A C46A, for which the self-cleavage came to 0.01.

A14G A25U G30A U38G C46U: the self-cleavage was determined as 0.02.

Regarding A14U A41U U43C, the self-cleavage came out at 0.07.

On to A14G G27U C45G, for which the self-cleavage amounted to 0.07.

Consider C13G G30C G40C C46U, for which the self-cleavage came to 0.04.

As to A14C C18U G44U, the self-cleavage was determined as 0.12.

For C13U U20G U34C, the self-cleavage came to 0.02.

Consider C13G G17U G30A, for which the self-cleavage stood at 0.03.

For C13U G21C G40U, the self-cleavage was found to be 0.04.

Turning to A14U C18A G22U A25G G27U C37U A41U C46A, the self-cleavage came to 0.04.

Consider C13U U28G C46A, for which the self-cleavage was found to be 0.1.

With A14C G17A G30C, the self-cleavage amounted to 0.

As to A14C U34G A39U, the self-cleavage stood at 0.21.
